Sequences and labels used below:
B1: GAACGUU (DNA:RNA)
RNA: GGGAGACCGGAAUUCAGAUUGUCCGAACGUUUUAAAUCCCGUCGUAGCCACCA
DNA 1: CAATCTGAATTCCGGTCTCCC
DNA 2: TGGTGGCTACGACGGGATT
B2: ACUCGCA (DNA:RNA)
RNA: B1 RNA with G25A, A26C, A27U, U30C, U31A
DNA 1: CAATCTGAATTCCGGTCTCCC
DNA 2: TGGTGGCTACGACGGGATT
B3: GAACCAG (DNA:RNA)
RNA: B1 RNA with G29C, U30A, U31G
DNA 1: CAATCTGAATTCCGGTCTCCC
DNA 2: TGGTGGCTACGACGGGATT
B4: ACGUAUC (DNA:RNA)
RNA: B1 RNA with G25A, A26C, A27G, C28U, G29A, U31C
DNA 1: CAATCTGAATTCCGGTCTCCC
DNA 2: TGGTGGCTACGACGGGATT
B5: CACACGU (DNA:RNA)
RNA: B1 RNA with G25C, A27C, C28A, G29C, U30G
DNA 1: CAATCTGAATTCCGGTCTCCC
DNA 2: TGGTGGCTACGACGGGATT
B6: ACGUACU (DNA:RNA)
RNA: B1 RNA with G25A, A26C, A27G, C28U, G29A, U30C
DNA 1: CAATCTGAATTCCGGTCTCCC
DNA 2: TGGTGGCTACGACGGGATT
B7: ACAGCGG (DNA:RNA)
RNA: B1 RNA with G25A, A26C, C28G, G29C, U30G, U31G
DNA 1: CAATCTGAATTCCGGTCTCCC
DNA 2: TGGTGGCTACGACGGGATT
B8: UUUUCGG (DNA:RNA)
RNA: GGGAGACCGGAAUUCAGAUUGUCCUUUUCGGUUAAAUCCCGUCGUAGCCACCA
DNA 1: CAATCTGAATTCCGGTCTCCC
DNA 2: TGGTGGCTACGACGGGATT
B9: CUAAAUU (DNA:RNA)
RNA: B1 RNA with G25C, A26U, C28A, G29A
DNA 1: CAATCTGAATTCCGGTCTCCC
DNA 2: TGGTGGCTACGACGGGATT
B10: UGUAUGA (DNA:RNA)
RNA: B8 RNA with U26G, U28A, C29U, G31A
DNA 1: CAATCTGAATTCCGGTCTCCC
DNA 2: TGGTGGCTACGACGGGATT
B11: CCAGCAA (DNA:RNA)
RNA: B1 RNA with G25C, A26C, C28G, G29C, U30A, U31A
DNA 1: CAATCTGAATTCCGGTCTCCC
DNA 2: TGGTGGCTACGACGGGATT
B12: CUUCGAA (DNA:RNA)
RNA: B1 RNA with G25C, A26U, A27U, U30A, U31A
DNA 1: CAATCTGAATTCCGGTCTCCC
DNA 2: TGGTGGCTACGACGGGATT
B13: GCAUACU (DNA:RNA)
RNA: B1 RNA with A26C, C28U, G29A, U30C
DNA 1: CAATCTGAATTCCGGTCTCCC
DNA 2: TGGTGGCTACGACGGGATT
B14: GGCAACA (DNA:RNA)
RNA: B1 RNA with A26G, A27C, C28A, G29A, U30C, U31A
DNA 1: CAATCTGAATTCCGGTCTCCC
DNA 2: TGGTGGCTACGACGGGATT
B15: AGAGCGU (DNA:RNA)
RNA: B1 RNA with G25A, A26G, C28G, G29C, U30G
DNA 1: CAATCTGAATTCCGGTCTCCC
DNA 2: TGGTGGCTACGACGGGATT
B16: UUCUCAC (DNA:RNA)
RNA: B8 RNA with U27C, G30A, G31C
DNA 1: CAATCTGAATTCCGGTCTCCC
DNA 2: TGGTGGCTACGACGGGATT
B17: AAAACUA (DNA:RNA)
RNA: B1 RNA with G25A, C28A, G29C, U31A
DNA 1: CAATCTGAATTCCGGTCTCCC
DNA 2: TGGTGGCTACGACGGGATT
B18: UUUUAAG (DNA:RNA)
RNA: B8 RNA with C29A, G30A
DNA 1: CAATCTGAATTCCGGTCTCCC
DNA 2: TGGTGGCTACGACGGGATT
B19: ACCAUAG (DNA:RNA)
RNA: B8 RNA with U25A, U26C, U27C, U28A, C29U, G30A
DNA 1: CAATCTGAATTCCGGTCTCCC
DNA 2: TGGTGGCTACGACGGGATT
B20: CCUGACC (DNA:RNA)
RNA: B8 RNA with U25C, U26C, U28G, C29A, G30C, G31C
DNA 1: CAATCTGAATTCCGGTCTCCC
DNA 2: TGGTGGCTACGACGGGATT
B21: UGCUGCG (DNA:RNA)
RNA: B8 RNA with U26G, U27C, C29G, G30C
DNA 1: CAATCTGAATTCCGGTCTCCC
DNA 2: TGGTGGCTACGACGGGATT
B22: UCCUUUC (DNA:RNA)
RNA: B8 RNA with U26C, U27C, C29U, G30U, G31C
DNA 1: CAATCTGAATTCCGGTCTCCC
DNA 2: TGGTGGCTACGACGGGATT
B23: AACUCGU (DNA:RNA)
RNA: B8 RNA with U25A, U26A, U27C, G31U
DNA 1: CAATCTGAATTCCGGTCTCCC
DNA 2: TGGTGGCTACGACGGGATT
B24: GAGUCGA (DNA:RNA)
RNA: B8 RNA with U25G, U26A, U27G, G31A
DNA 1: CAATCTGAATTCCGGTCTCCC
DNA 2: TGGTGGCTACGACGGGATT
B25: UAAGCGA (DNA:RNA)
RNA: B8 RNA with U26A, U27A, U28G, G31A
DNA 1: CAATCTGAATTCCGGTCTCCC
DNA 2: TGGTGGCTACGACGGGATT
B26: GUGACUC (DNA:RNA)
RNA: B1 RNA with A26U, A27G, C28A, G29C, U31C
DNA 1: CAATCTGAATTCCGGTCTCCC
DNA 2: TGGTGGCTACGACGGGATT
B27: CAUAGCC (DNA:RNA)
RNA: B1 RNA with G25C, A27U, C28A, U30C, U31C
DNA 1: CAATCTGAATTCCGGTCTCCC
DNA 2: TGGTGGCTACGACGGGATT
B28: ACAUACG (DNA:RNA)
RNA: B8 RNA with U25A, U26C, U27A, C29A, G30C
DNA 1: CAATCTGAATTCCGGTCTCCC
DNA 2: TGGTGGCTACGACGGGATT
B29: CGCAGGU (DNA:RNA)
RNA: B1 RNA with G25C, A26G, A27C, C28A, U30G
DNA 1: CAATCTGAATTCCGGTCTCCC
DNA 2: TGGTGGCTACGACGGGATT
B30: GAGACGA (DNA:RNA)
RNA: B1 RNA with A27G, C28A, G29C, U30G, U31A
DNA 1: CAATCTGAATTCCGGTCTCCC
DNA 2: TGGTGGCTACGACGGGATT
B31: AGAGAUG (DNA:RNA)
RNA: B1 RNA with G25A, A26G, C28G, G29A, U31G
DNA 1: CAATCTGAATTCCGGTCTCCC
DNA 2: TGGTGGCTACGACGGGATT

Positions count from the first letter of the chain named. The list shows a part of the results.

This is an account of results in PMC9911399, “Two distinct binding modes provide the RNA-binding protein RbFox with extraordinary sequence specificity”.

For the experiment, the target named is T1, RBFOX1 RRM RbFoxmut (Fox-RRM*) (Homo sapiens, UniProt Q9NWB1 109-208, R118D;E147R;N151S;E152T).
T1 sequence: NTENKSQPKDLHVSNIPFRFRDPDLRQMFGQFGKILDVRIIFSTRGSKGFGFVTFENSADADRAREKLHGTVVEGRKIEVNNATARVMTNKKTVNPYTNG
In words: EMSA; HiTS-Eq, 1 nM pool, 10 min; buffer printed only for the single-RNA assays: 10 mM Tris pH 7.5, 150 mM NaCl, 3.4 mM EDTA, 0.001% NP-40, 30 C. To be noted: tags: His6 N-terminal (pET28a); label: 5' 32P. In outline: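 These values rest on relative association constants, computed from read-count changes of each RNA species versus the control reaction and normalised to the cognate motif. Reads came from free RNA recovered by 8% native PAGE after purified RbFox RRM (wild type or mutant) at increasing concentrations was equilibrated for 10 min in 50 µL with 1 nM of a 5′-radiolabelled pool with 7 randomized nucleotides and DNA-annealed flanks.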
For B1, the binding signal was 0.199 KA relative to UGCAUGU. As for B2, the binding signal is 0.15 KA relative to UGCAUGU.

For the molecule B3, the binding signal was 0.105 KA relative to UGCAUGU.

As for B4, the binding signal was 0.185 KA relative to UGCAUGU. As for B5, the binding signal is 0.12 KA relative to UGCAUGU. Next, B6: 0.113 KA relative to UGCAUGU. For B7, the binding signal was 0.101 KA relative to UGCAUGU. Regarding B8, the binding signal is 0.0516 KA relative to UGCAUGU. Consider B9, for which the binding signal was 0.0658 KA relative to UGCAUGU. B10: the binding signal was 0.44 KA relative to UGCAUGU. For B11, the binding signal was 0.0862 KA relative to UGCAUGU.

Regarding B12, the binding signal was 0.125 KA relative to UGCAUGU. Consider B13, for which the binding signal is 0.125 KA relative to UGCAUGU. Take B14: the binding signal was 0.071 KA relative to UGCAUGU. Regarding B15, the binding signal was 0.122 KA relative to UGCAUGU. Next, B16: 0.102 KA relative to UGCAUGU; B17: 0.1 KA relative to UGCAUGU. On to B18, for which the binding signal was 0.113 KA relative to UGCAUGU. As for B19, the binding signal was 0.128 KA relative to UGCAUGU.

For B20, the binding signal is 0.0903 KA relative to UGCAUGU. Take B21: the binding signal is 0.193 KA relative to UGCAUGU. B22: the binding signal is 0.061 KA relative to UGCAUGU.

As for B23, the binding signal was 0.122 KA relative to UGCAUGU. For B24, the binding signal is 0.104 KA relative to UGCAUGU.

In the case of B25, the binding signal was 0.0635 KA relative to UGCAUGU. As to B26, the binding signal is 0.101 KA relative to UGCAUGU. Turning to B27, the binding signal was 0.181 KA relative to UGCAUGU. As for B28, the binding signal is 0.111 KA relative to UGCAUGU. Next, B29: 0.129 KA relative to UGCAUGU. With B30, the binding signal was 0.0516 KA relative to UGCAUGU. Turning to B31, the binding signal was 0.159 KA relative to UGCAUGU.
